# Test results: ChEMBL document CHEMBL5606460, “ASAP - DENV-2 NS2B-NS3 protease fluorescence single point” (2024)
# Out of some 2,000 compounds screened, about 110 (5.5%) showed an effect of 50% or more. The list shows a part of the results.
# Target: Genome polyprotein (dengue virus type 2) (UniProt P29990)
# [1] = Thailand/16681/1984, Concentration 25.0 uM, Number of replicates 1.0
structure (smiles),measurement,setting,value
CNC(=O)c1cc(Cl)ccc1NS(=O)(=O)c1ccc(C(=O)N2CCOCC2)cc1,inhibition,"Thailand/16681/1984, Concentration 49.5 uM, Number of replicates 2.0, Standard deviation 0.9242131636205312 %",0.016%
same,inhibition,"Thailand/16681/1984, Concentration 99.01 uM, Number of replicates 2.0, Standard deviation 0.5448647637736805 %",0.743%
same,inhibition,"Thailand/16681/1984, Concentration 198.0 uM, Number of replicates 2.0, Standard deviation 0.08706358790592401 %",3.74%
COC1CN(C(=O)c2cc(Cl)ccc2NS(=O)(=O)c2ccc(Oc3ccccc3Cl)cc2)C1,inhibition,"Thailand/16681/1984, Concentration 49.5 uM, Number of replicates 2.0, Standard deviation 0.43340110085934463 %",13.9%
same,inhibition,"Thailand/16681/1984, Concentration 99.01 uM, Number of replicates 2.0, Standard deviation 0.8668022017186893 %",27.6%
same,inhibition,"Thailand/16681/1984, Concentration 198.0 uM, Number of replicates 2.0, Standard deviation 1.1631532151634014 %",43.9%
Cc1cc(CO)c2cccc(CC(=O)N[C@H](Cc3c[nH]cn3)C(=O)O)c2n1,inhibition,"Thailand/16681/1984, Concentration 49.95 uM, Number of replicates 2.0, Standard deviation 0.5871204354474296 %",9.25%
same,inhibition,"Thailand/16681/1984, Concentration 99.9 uM, Number of replicates 2.0, Standard deviation 0.6044303147182479 %",24.8%
O=Cc1ccc(N2CCC(C(=O)N[C@H](CO)Cc3ccc(Cl)cc3)CC2)cc1,inhibition,[1],14.2%
Cc1cc(CO)c2cccc(Cc3cccc(C(=O)N4CC5(CCCOC5)C4)c3)c2n1,inhibition,"Thailand/16681/1984, Concentration 49.95 uM, Number of replicates 2.0, Standard deviation 0.7330249435314733 %",-1.03%
same,inhibition,"Thailand/16681/1984, Concentration 99.9 uM, Number of replicates 2.0, Standard deviation 0.45993726244398564 %",3.33%
Cc1cc(CO)c2cccc(NC(=O)[C@@H]3CCCC[C@H]3C(=O)O)c2n1,inhibition,"Thailand/16681/1984, Concentration 49.95 uM, Number of replicates 2.0, Standard deviation 1.6403651221128503 %",4.53%
same,inhibition,"Thailand/16681/1984, Concentration 99.9 uM, Number of replicates 2.0, Standard deviation 0.7343808497949172 %",11.1%
COCc1cc(-c2ccccc2C(=O)Nc2cnn(C)c2)ccn1,inhibition,"Thailand/16681/1984, Concentration 49.5 uM, Number of replicates 2.0, Standard deviation 1.4111132401966338 %",-5.45%
same,inhibition,"Thailand/16681/1984, Concentration 99.01 uM, Number of replicates 2.0, Standard deviation 1.6255328031848963 %",-5.34%
same,inhibition,"Thailand/16681/1984, Concentration 198.0 uM, Number of replicates 2.0, Standard deviation 0.730186058256325 %",-4.12%
O=Cc1ccc(N2CCC(C(=O)N3CCO[C@@H](c4ccccc4)C3)CC2)cc1,inhibition,[1],8.68%
Cc1noc([C@@H]2CCCCN2C(=O)C2CCN(c3ccc(C=O)cc3)CC2)n1,inhibition,[1],15%
c1ccc2c([C@H]3CCN(C[C@H]4CCCOC4)C3)c[nH]c2c1,inhibition,"Thailand/16681/1984, Concentration 49.5 uM, Number of replicates 2.0, Standard deviation 0.2640667803664584 %",-0.786%
same,inhibition,"Thailand/16681/1984, Concentration 99.01 uM, Number of replicates 2.0, Standard deviation 0.5290885240264768 %",-1.17%
same,inhibition,"Thailand/16681/1984, Concentration 198.0 uM, Number of replicates 2.0, Standard deviation 0.7993630294164077 %",0.291%
CNC(=O)c1cnncc1NS(=O)(=O)c1ccc(Oc2ccccc2Cl)cc1,inhibition,"Thailand/16681/1984, Concentration 49.5 uM, Number of replicates 2.0, Standard deviation 2.9688082409176766 %",2.22%
same,inhibition,"Thailand/16681/1984, Concentration 99.01 uM, Number of replicates 2.0, Standard deviation 2.2862743420867915 %",7.71%
same,inhibition,"Thailand/16681/1984, Concentration 198.0 uM, Number of replicates 2.0, Standard deviation 2.701916446857586 %",19.5%
c1cc(CN2CCOC[C@@H]2Cc2c[nH]c3ccccc23)c2[nH]ncc2c1,inhibition,"Thailand/16681/1984, Concentration 49.5 uM, Number of replicates 2.0, Standard deviation 0.0760431985446895 %",1.44%
same,inhibition,"Thailand/16681/1984, Concentration 99.01 uM, Number of replicates 2.0, Standard deviation 0.06426871776989805 %",3.71%
same,inhibition,"Thailand/16681/1984, Concentration 198.0 uM, Number of replicates 2.0, Standard deviation 0.6000060757363623 %",3.93%
Cn1ccc(NS(=O)(=O)c2ccc(Oc3ccccc3)cc2)n1,inhibition,"Thailand/16681/1984, Concentration 49.5 uM, Number of replicates 2.0, Standard deviation 0.1825498020182651 %",-5.09%
same,inhibition,"Thailand/16681/1984, Concentration 99.01 uM, Number of replicates 2.0, Standard deviation 1.2530956014100136 %",-3.8%
same,inhibition,"Thailand/16681/1984, Concentration 198.0 uM, Number of replicates 2.0, Standard deviation 2.341174068313809 %",-2.6%
CC(C)N(C[C@H](O)c1ccc(O)c(O)c1)C(=O)C1CCN(c2ccc(C=O)cc2)CC1,inhibition,[1],14.1%
Nc1ccc(Cl)c2cccnc12,inhibition,"Thailand/16681/1984, Concentration 49.95 uM, Number of replicates 2.0, Standard deviation 3.8383177085719704 %",-6.59%
same,inhibition,"Thailand/16681/1984, Concentration 99.9 uM, Number of replicates 2.0, Standard deviation 5.003138959022175 %",-3.71%
Cc1nn(Cc2cccnc2F)cc1C1CCNCC1,inhibition,"Thailand/16681/1984, Concentration 49.5 uM, Number of replicates 2.0, Standard deviation 2.01751691250901 %",-2.03%
same,inhibition,"Thailand/16681/1984, Concentration 99.01 uM, Number of replicates 2.0, Standard deviation 2.3800395844705995 %",-1.46%
same,inhibition,"Thailand/16681/1984, Concentration 198.0 uM, Number of replicates 2.0, Standard deviation 0.22993769543518583 %",-2.53%
Cc1cc(CO)c2cccc(NCCc3c(C)n[nH]c3C)c2n1,inhibition,"Thailand/16681/1984, Concentration 49.95 uM, Number of replicates 2.0, Standard deviation 0.9348671493542363 %",1.06%
same,inhibition,"Thailand/16681/1984, Concentration 99.9 uM, Number of replicates 2.0, Standard deviation 1.0610742224195924 %",7.93%
Cc1cccc(NC(=O)CNC(=O)C2CCN(c3ccc(C=O)cc3)CC2)c1C,inhibition,[1],13%
CN1CCCC[C@@H](CNCc2nnc3ccccn23)C1=O,inhibition,"Thailand/16681/1984, Concentration 49.5 uM, Number of replicates 2.0, Standard deviation 0.3731332148311917 %",-1.86%
same,inhibition,"Thailand/16681/1984, Concentration 99.01 uM, Number of replicates 2.0, Standard deviation 1.4203136864923194 %",0.115%
same,inhibition,"Thailand/16681/1984, Concentration 198.0 uM, Number of replicates 2.0, Standard deviation 3.0558410668925435 %",0.508%
O=Cc1ccc(N2CCC(C(=O)N[C@H]3Cc4ccc(Br)cc4C3)CC2)cc1,inhibition,[1],3.19%
Cc1cc(Cl)c2cccc(NC(=O)[C@@H]3CCCC[C@H]3N)c2n1,inhibition,"Thailand/16681/1984, Concentration 99.9 uM, Number of replicates 2.0, Standard deviation 1.2808103574664134 %",-9.95%
O=Cc1ccc(N2CCC(C(=O)NCC(=O)c3ccc([N+](=O)[O-])cc3)CC2)cc1,inhibition,[1],19.8%
O=C(NCc1c[nH]nn1)c1cc(Cl)ccc1NS(=O)(=O)c1ccc(Oc2ccccc2Cl)cc1,inhibition,"Thailand/16681/1984, Concentration 49.5 uM, Number of replicates 2.0, Standard deviation 0.023138282657692737 %",75.2%
same,inhibition,"Thailand/16681/1984, Concentration 99.01 uM, Number of replicates 2.0, Standard deviation 0.008898717007196123 %",63.2%
same,inhibition,"Thailand/16681/1984, Concentration 198.0 uM, Number of replicates 2.0, Standard deviation 0.06140627240643217 %",36.5%
